These results are taken from PMC3705270.

Chains of the proteins cited; added tags and fusions are not shown.
UniProt P04608: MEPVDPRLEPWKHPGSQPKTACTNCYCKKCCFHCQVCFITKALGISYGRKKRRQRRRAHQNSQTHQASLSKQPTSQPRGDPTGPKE
UniProt P05919: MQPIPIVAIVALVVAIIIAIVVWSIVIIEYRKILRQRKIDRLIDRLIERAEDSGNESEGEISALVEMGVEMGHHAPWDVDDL

No constants are given. Whether binding was seen depends on the method and setting. For some assays here: Binding seen in cells or lysates may run through a third protein. Some binding calls cover weakened binding; strength is not graded here.

Assay [1] addresses GST-fused NC (purified recombinant, from pGNC1) (HIV-1) (UniProt P04591). The assay is described as follows: pull-down; only the target purified.
For assay [2], the target named is Flag-tagged NC (pCMV/Flag-NC) in HEK293 cells (HIV-1) (UniProt P04591). Briefly: co-IP.
The target in assay [3] is HIV-1 nucleocapsid protein NC (pGBK-NC, two-hybrid fusion) (HIV-1) (UniProt P04591). The assay is described as follows: two-hybrid.

On to “V5-tagged Tat (pcDNA/V5-Tat) in BHK-21 cell lysate (from UniProt P04608 1-86)”, for which the binding entry in assay [1] is reported as “binds”.
“V5-tagged Tat (pcDNA/V5-Tat) in HEK293 cells (from UniProt P04608 1-86)”: the binding result in assay [2] was “binds”.
As for “HIV-1 Vpu (pGAD-Vpu, two-hybrid fusion) (from UniProt P05919 1-82)”, in assay [3], the binding result is given as “no binding”.
“V5-tagged Vpu (pcDNA/V5-Vpu) in HEK293 cells (from UniProt P05919 1-82)”: the binding entry in assay [2] is listed as “no binding”.
“HIV-1 Tat (pGAD-Tat, two-hybrid fusion) (from UniProt P04608 1-86)”: the binding entry in assay [3] is given as “binds”.
